Out of some 310,000 compounds screened, about 18,000 (5.8%) were called active. This list was built around the results that the source calls inconclusive (neither active nor inactive); the mix of calls is not that of the screen. The call rests on the fitted dose curve; in most records, active means well fitted inhibition curve with a large enough effect; inconclusive means small, poorly fitted or top-dose-only effect, or another doubt; inactive means no such curve, though single readings can be large or run the other way. No potency is given beside an inconclusive call; the fits are too rough.
Experiment: Primary qHTS for delayed death inhibitors of the malarial parasite plastid, 48 hour incubation
Settings: P. falciparum luciferase growth in erythrocytes; series mostly up to 28.7 µM
How it was run: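 Cell-based growth assay: transgenic P. falciparum expressing firefly luciferase, cultured in red cells within RPMI 1640 containing 0.5% w/v Albumax, 24 mM bicarbonate and gentamycin. A drop in luciferase activity indicates inhibition.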
With `O=C1Nc2ccc(S(=O)(=O)NCCC3=CCCCC3)c3cccc1c23` the Potency was inconclusive [inhibitor, partial curve]. For `O=C1N(Cc2cccnc2)C[C@@H]2C[C@@H](c3ccc4nonc4c3)N3CCC[C@@]123`, the Potency was “inactive”. In the case of `Cc1ccc(NC(=O)COC(=O)CCc2ccc(S(=O)(=O)N3CCOCC3)cc2)c(C)c1`, the Potency is reported as inconclusive [inhibitor, full curve, poor fit]. With `COc1ccc(N(C(=O)C2COc3ccccc3O2)C(C(=O)NC2CCCCC2)c2ccccc2)cc1OC` (configuration not stated) the Potency was active: 7.38 µM. In the case of `Cc1cc(=O)[nH]c(/N=C(\N)Nc2ccc(SC(F)F)cc2)n1`, the Potency is reported as “inactive”. With `CC(C)c1csc(CN2CCN(CCc3ccccc3)C(CCO)C2)n1` (configuration not stated) the Potency was inconclusive [inhibitor, single point]. With `COc1ccc(CC2(CO)CCN(C(C)Cc3ccc(Cl)cc3)CC2)cc1` (configuration not stated) the Potency was active: 11.7 µM. With `Cc1nc(NC(=O)C23CC4CC(CC(C4)C2)C3)sc1Cc1ccc2c(c1)OCO2` the Potency was inconclusive [inhibitor, single point]. In the case of `CC(C)(C)NC(=O)Cn1cc(C#N)c2cc(Br)ccc21`, the Potency is reported as active: 5.86 µM. With `COc1cccc(N2C(=O)CC(N3CCN(c4ccc([N+](=O)[O-])cc4)CC3)C2=O)c1` (configuration not stated) the Potency was “inactive”. With `O=C(N/N=C/c1cccc([N+](=O)[O-])c1)c1nc2ccccc2c(=O)[nH]1` the Potency was “inactive”. For `CN(C)S(=O)(=O)c1cccc(NC(=S)NC23CC4CC(CC(C4)C2)C3)c1`, the Potency was inconclusive [inhibitor, single point]. In the case of `COc1ccc(C(=O)CSc2nn3c(=O)c(C(C)(C)C)nnc3s2)cc1`, the Potency is reported as inconclusive [inhibitor, partial curve, poor fit]. In the case of `Cc1cc2cc(C)c(NCCNC(=O)c3ccccc3Cl)nc2cc1C`, the Potency is reported as inconclusive [inhibitor, single point]. In the case of `O=C(CN1CCC(NC(=O)Nc2ccc(F)cc2)CC1)Nc1ccccc1[N+](=O)[O-]`, the Potency is reported as inconclusive [inhibitor, partial curve]. With `CN1C(=O)/C(=C/c2ccc(OCc3ccc(F)cc3)cc2)N(C)C1=S` the Potency was inconclusive [inhibitor, single point]. For `CCCc1cc(NC(=O)CCl)n(-c2ccccc2)n1`, the Potency was inconclusive [inhibitor, partial curve]. For `O=[N+]([O-])c1cccc(-c2noc(-c3cccs3)n2)c1`, the Potency was “inactive”. With `COc1ccc(COC(=O)N/N=C(\C)CC(=O)NCc2ccc(Cl)cc2)cc1` the Potency was inconclusive [inhibitor, single point]. With `Fc1ccc2c(c1)c1n[nH]c(=S)nc1n2CCc1ccccc1` the Potency was inconclusive [inhibitor, single point]. In the case of `CC(=O)Nc1nc2nc(-c3ccccc3)cc(-c3ccccc3)n2n1`, the Potency is reported as inconclusive [inhibitor, partial curve, poor fit]. With `Cc1noc(C)c1COc1ccc(C(=O)NCC(c2c(F)cccc2Cl)N(C)C)cc1` (configuration not stated) the Potency was inconclusive [inhibitor, partial curve]. In the case of `CC1(C)Cc2c(c(N3CCOCC3)nc3sc(C#N)c(N)c23)CS1`, the Potency is reported as inconclusive [inhibitor, partial curve, poor fit]. For `Cc1ccnn1-c1ccc(C(=O)N2CCCN(S(=O)(=O)c3ccc(F)cc3)CC2)cc1`, the Potency was inconclusive [inhibitor, partial curve]. For `COc1ccc(C(C(=O)NC2CCCCC2)N(Cc2cccnc2)C(=O)c2snc(C(N)=O)c2N)cc1` (configuration not stated), the Potency was inconclusive [inhibitor, single point]. With `Cc1cc(=O)oc2ccc(OCC(=O)N(Cc3ccc(F)cc3)Cc3ccco3)cc12` the Potency was active: 10.4 µM. In the case of `Cc1onc(-c2c(Cl)cccc2Cl)c1COC(=O)c1ccc(Cl)cc1[N+](=O)[O-]`, the Potency is reported as inconclusive [inhibitor, single point]. With `COc1ccc(C2SCCN2S(=O)(=O)c2ccc(NC(C)=O)cc2)cc1` (configuration not stated) the Potency was inconclusive [inhibitor, partial curve, poor fit]. With `COCCNC(=O)C(c1ccc(F)cc1)N(C(=O)CCC(=O)Nc1nccs1)c1ccc(C)cc1` (configuration not stated) the Potency was inconclusive [inhibitor, partial curve]. For `CCCCNC(=O)c1ccc2c(c1)ncn2C1CCCCC1`, the Potency was inconclusive [inhibitor, partial curve, poor fit]. In the case of `COc1ccc(-c2csc3ncnc(N4CCN(c5ccc(OC)cc5)CC4)c23)cc1`, the Potency is reported as inconclusive [inhibitor, single point]. With `COc1cc2c(cc1NC(=O)CC1SC(N3CCCC3)=NC1=O)oc1ccccc12` (configuration not stated) the Potency was active: 6.57 µM. In the case of `Cc1cccc(NS(=O)(=O)c2cccc(C(=O)N3CCCCCC3)c2)c1`, the Potency is reported as inconclusive [inhibitor, single point]. In the case of `CCOCCCn1c(=S)[nH]c2cc(C(=O)NCc3ccc(F)cc3)ccc2c1=O`, the Potency is reported as “inactive”. With `COc1ccc(C(CNC(=O)COc2ccc(F)cc2Cl)N2CCOCC2)cc1` (configuration not stated) the Potency was inconclusive [inhibitor, single point]. For `Cc1nc2ccc(NC(=O)c3ccc(S(=O)(=O)N(C)C)cc3)cc2s1`, the Potency was inconclusive [inhibitor, partial curve, poor fit]. In the case of `CC1CN(C(=O)c2ccccc2OCc2ccccc2Cl)CC(C)O1` (configuration not stated), the Potency is reported as inconclusive [inhibitor, single point]. With `O=C(N/N=C/c1ccc(Cl)cc1Cl)c1cccc(N2CCCC2=O)c1` the Potency was inconclusive [inhibitor, single point]. In the case of `C=C1CCC[C@]2(C)C[C@H]3OC(=O)C(CN(C)CC(OC)OC)[C@H]3CC12` (some centres not stated), the Potency is reported as “inactive”. With `Cn1c(NNC(=O)c2cccc3ccccc23)cc(=O)n(C)c1=O` the Potency was inconclusive [inhibitor, single point]. In the case of `CCOC(=O)[C@@H]1[C@H]2COc3ccccc3[C@@H]2N2C(=O)N(c3cccc(C)c3)C(=O)[C@]12C`, the Potency is reported as “inactive”. With `CCC(Sc1nc2cc3c(cc2c(=O)n1Cc1ccco1)OCO3)C(=O)NCCOC` (configuration not stated) the Potency was inconclusive [inhibitor, partial curve, poor fit]. In the case of `Oc1ccc(Br)cc1Cn1nnc2ccccc21`, the Potency is reported as inconclusive [inhibitor, partial curve, poor fit]. For `Cc1ccc(-c2cc(C(F)(F)F)n3ncc(C(=O)N4CCCc5ccccc54)c3n2)cc1`, the Potency was inconclusive [inhibitor, partial curve]. For `Cc1ccc(-n2[nH]c(C)c(C=Nc3ccc4[nH]c(=O)[nH]c4c3)c2=O)cc1`, the Potency was “inactive”. For `Cc1cccc(C(=O)N2CCN(c3ccc([N+](=O)[O-])c(NCc4ccco4)c3)CC2)c1`, the Potency was inconclusive [inhibitor, partial curve]. In the case of `Cc1ccc(S(=O)(=O)Cn2nnnc2C(c2ccc(F)cc2)N2CCC(C(N)=O)CC2)cc1` (configuration not stated), the Potency is reported as inconclusive [inhibitor, single point]. With `CCOCN(C(=O)Cn1c(C(C)O)nc2ccccc21)c1c(C)cccc1CC` (configuration not stated) the Potency was inconclusive [inhibitor, full curve]. With `COC(=O)c1c(NC(=O)C2CC2)sc(C(=O)Nc2ccccc2)c1C` the Potency was “inactive”. With `CC(C)CN(CCCNC(=O)CN1C(=O)COc2ccc(S(=O)(=O)N3CCC(C)CC3)cc21)CC(C)C` the Potency was inconclusive [inhibitor, single point]. For `CCOc1ccccc1-n1c(SCC(=O)NC(C)(C)C)nnc1-c1ccoc1C`, the Potency was active: 13.1 µM. With `Brc1ccc2c(c1)C(C1=NCCN1)c1ccccc1CS2` (configuration not stated) the Potency was inconclusive [inhibitor, single point]. In the case of `NC(=O)N/N=C/c1cccc(OCc2ccc(F)cc2)c1`, the Potency is reported as “inactive”. With `C[C@]1(C(=O)NCCc2c[nH]c3ccccc23)C=C[C@@H](Cc2ccccc2)N1C(=O)c1ccccc1` the Potency was inconclusive [inhibitor, single point]. In the case of `Cc1ccc2[nH]cc(CCNC(=O)/C=C/c3ccco3)c2c1`, the Potency is reported as inconclusive [inhibitor, partial curve, poor fit]. In the case of `Brc1cccc(OCCCNC2CCCC2)c1`, the Potency is reported as inconclusive [inhibitor, single point]. For `CCCCOc1cccc(C(=O)N(Cc2ccco2)C2CCS(=O)(=O)C2)c1` (configuration not stated), the Potency was inconclusive [inhibitor, partial curve, poor fit]. In the case of `CC1=CC(=C(C#N)c2nc3ccccc3s2)C=C(C)N1Cc1ccco1`, the Potency is reported as active: 3.29 µM. For `COc1ccccc1C(=O)Nc1ccc(C(=O)c2ccccc2)cc1`, the Potency was “inactive”. In the case of `Cc1cnc(C(=O)Nc2ccc(F)c(F)c2)cn1`, the Potency is reported as “inactive”. In the case of `Oc1ccc(-c2nnc(Nc3ccccc3)c3ccccc23)cc1`, the Potency is reported as inconclusive [inhibitor, single point]. In the case of `COC(=O)CCn1c(C)cc(C(=O)COc2ccccc2C(N)=O)c1C`, the Potency is reported as “inactive”. In the case of `c1ccc(CSc2ncn(-c3ccccc3)n2)cc1`, the Potency is reported as “inactive”. With `CC1CC(=O)Nc2ccccc2N1C(=O)Cn1cnc2ccccc2c1=O` (configuration not stated) the Potency was “inactive”. In the case of `COc1c(Br)cc(Br)cc1C(=O)Nc1ccccc1N1CCCC1`, the Potency is reported as inconclusive [inhibitor, partial curve]. In the case of `CN(C)c1ccc(/C=N/Nc2nc3ccccc3o2)cc1`, the Potency is reported as “inactive”. With `O=S(=O)(c1cccc(S(=O)(=O)N2CCOCC2)c1)N1CCCCCC1` the Potency was “inactive”.
Potency means the concentration at half of the fitted maximal effect; tags describe the fitted curve by direction and shape.
